Test results taken from PubChem BioAssay (NCATS).
Inconclusive results, whose numbers are uncertain, are shown with a selection of clear calls. For part of these data: A potency beside an inconclusive call is a rough fit, not a confirmed value. Calls of active or inactive are those of the source. Unless noted, calls come from the whole dose curve; as a rule, active = well fitted curve in the direction sought with a large enough effect; inconclusive = small, poorly fitted or top-dose-only effect, or another doubt; inactive = no such curve, though single readings can be large; an effect the other way counts as inactive or inconclusive.

How the values were obtained:
[1] = qHTS of pediatric cancer cell lines to identify multiple opportunities for drug repurposing: Primary screen for DAOY cells (AID 1347090); settings: DAOY medulloblastoma viability, CellTiter-Glo luminescence, 48 h; activity change, negative = cytotoxic: at 46 µM (top of the series); note: nearly all actives have a fitted effect of over 55% in size
Procedure, shortened: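 Viability measured as metabolically active cells via CellTiter-Glo luminescence following 48 hours of compound exposure, 11-point dilutions in confirmatory testing. 500-1,000 cells/well plated 5 hours before dosing; controls were DMSO and 2.3 µM bortezomib.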

[2] = qHTS of pediatric cancer cell lines to identify multiple opportunities for drug repurposing: Primary screen for U-2 OS cells (AID 1347096); note: nearly all actives have a fitted effect of over 50% in size
Procedure, shortened: (§1)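 Viability after 48 h compound treatment at 37C, 500-1,000 cells/well, read as ATP luminescence with CellTiter-Glo. Primary screens used 11-point (MIPE, 0.78 nM-46 µM) or 8-point (NPC, 0.59 nM-46 µM) final concentrations; follow-up screens used 11-point dilutions.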

[3] = qHTS of pediatric cancer cell lines to identify multiple opportunities for drug repurposing: Primary screen for SK-N-SH cells (AID 1347098); settings: SK-N-SH viability, CellTiter-Glo luminescence, 48 h; activity change, negative = cytotoxic: at 57 µM (top of the series); note: nearly all actives have a fitted effect of over 65% in size
Procedure, shortened: (§2)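 Cells (500-1,000/well) rested 5 h, then received compounds for 48 h; metabolically active cells were measured by CellTiter-Glo luminescence. Final concentrations spanned up to 46 µM (MIPE, 11-point) or 0.59 nM-46 µM (NPC, 8-point) in primary screens, 11-point in follow-ups.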

[4] = qHTS of pediatric cancer cell lines to identify multiple opportunities for drug repurposing: Primary screen for BT-12 cells (AID 1347101); note: nearly all actives have a fitted effect of over 25% in size
Procedure, shortened: as §2

[5] = qHTS of pediatric cancer cell lines to identify multiple opportunities for drug repurposing: Primary screen for Rh18 cells (AID 1347102); note: nearly all actives have a fitted effect of over 65% in size
Procedure, shortened: as §1

[6] = qHTS of pediatric cancer cell lines to identify multiple opportunities for drug repurposing: Primary screen for OHS-50 cells (AID 1347103); note: nearly all actives have a fitted effect of over 40% in size
Procedure, shortened: as §2

[7] = qHTS of pediatric cancer cell lines to identify multiple opportunities for drug repurposing: Primary screen for Rh41 cells (AID 1347108); note: nearly all actives have a fitted effect of over 70% in size
Procedure, shortened: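 Viability was measured as metabolically active cells after 48 hours of treatment, read by CellTiter-Glo luminescence. Compounds were tested at multiple final concentrations, giving concentration-response curves.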

[8] = molecular target: Cytochrome P450 2C9 (Homo sapiens) (UniProt P11712); experiment: Cytochrome P450 family 2 subfamily C member 9 (CYP2C9) small molecule antagonists: luciferase biochemical (cell-free) qHTS assay (AID 1645842; active = well fitted curve in the direction sought with a large enough effect in the repeat runs; inconclusive = weak or mixed curves; inactive = no such curve, though single readings can be large; an effect the other way counts as inactive or inconclusive; note: nearly all actives have a fitted effect of over 55% in size)
Procedure, shortened: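 P450-Glo CYP2C9 system: proluciferin substrate with enzyme in mix containing 0.4% BSA, 10 min at room temperature, then NADPH regeneration solution added and incubated 1 h at 37C. Detection reagent stopped reaction; luminescence read after 20 min as RLU.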

WaGa = experiment: qHTS assay to identify novel small-molecules to repurpose for Merkel cell carcinoma treatment (AID 1296009); settings: MCC and control cell lines, CellTiter-Glo viability, 72 h; series mostly up to 46 µM; note: nearly all actives have a fitted effect of over 60% in size
Procedure, shortened: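 CellTiter-Glo luminescence after 72 hr compound exposure at 37 degree celsius gave cell viability. Libraries NPC and MIPE were run as 8- and 11-point dose responses; RLUs normalized to DMSO (negative) and no-cell (cytotoxicity) controls.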

[9] = qHTS to identify inhibitors of the type 1 interferon - major histocompatibility complex class I in skeletal muscle: primary screen against the NCATS Mechanism Interrogation Plate v5.0 (MIPE) Libary (AID 1347411); settings: iHSKM cells + IFN-b, HiBiT-tagged MHC-I luminescence, 24 h; series mostly up to 45.8 µM; note: nearly all actives have a fitted effect of over 65% in size
Procedure, shortened: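 IFN-beta-driven (4 ng/ml) HLA-B-HiBit expression in CRISPR-tagged C25cl48 myoblasts; compounds 11-pt, 1:3, max 46 uM, 24 hr exposure; lytic NanoLuc complementation luminescence.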

[10] = molecular target: Phospholipid hydroperoxide glutathione peroxidase GPX4 (Homo sapiens) (UniProt P36969); experiment: Primary qHTS Assay for Inhibitors of Recombinant Selenoprotein Glutathione Peroxidase 4 (GPX4) (AID 1845192); note: nearly all actives have a fitted effect of over 65% in size
Procedure, shortened: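 Steps: GPX4 plus compound, 30 min RT; add GR/GSH/NADPH master mix; start with cumene hydroperoxide; read 340/450 nm fluorescence at 0 and 15 min. Finals were 200 nM GPX4, 1 mM GSH, 0.5 mM CHP, 0.5 mM NADPH, 100 nM GR.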

[11] = Primary fluorescence-based thiol-reactive (MSTI) qHTS assay for identification of artifact compounds. (AID 1845221)
Procedure, shortened: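 Thiol-reactive compounds detected by quenching of 4 uM MSTI fluorescence (525/598 nm) after 1 h room-temperature dark incubation in PBS pH 7.4, 2% DMSO. qHTS titration; percent inhibition Hill-fitted against Acetyl-MSTI/MSTI controls.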

[12] = test system: Zika virus NS2B-NS3 protease (unlinked complex); experiment: Primary screen GU Rhodamine qHTS for Zika virus inhibitors: Unlinked NS2B-NS3 protease assay (AID 1347159); note: nearly all actives have a fitted effect of over 60% in size
Procedure, shortened: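 In dose–response format, inhibition of unlinked protease (25 nM) was measured with 1.5 microM bis-peptide Rhodamine110 substrate. Aprotinin served as the intraplate control.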

[13] = molecular target: Cytochrome P450 2D6 (Homo sapiens) (UniProt P10635); experiment: Cytochrome P450 family 2 subfamily D member 6 (CYP2D6) small molecule antagonists: luciferase biochemical (cell-free) qHTS assay (AID 1645840; active = well fitted curve in the direction sought with a large enough effect in the repeat runs; inconclusive = weak or mixed curves; inactive = no such curve, though single readings can be large; an effect the other way counts as inactive or inconclusive; note: nearly all actives have a fitted effect of over 55% in size)
Procedure, shortened: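 P450-Glo CYP2D6 system: proluciferin substrate converted by enzyme to luciferin, read by luminescence proportional to activity. Enzyme-substrate mix with compound 10 min at room temperature, then NADPH regeneration 1 h before detection reagent.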

[14] = molecular target: Glutathione peroxidase 1 (Homo sapiens) (UniProt P07203); experiment: Primary qHTS Assay for Inhibitors of Recombinant Selenoprotein Glutathione Peroxidase 1 (GPX1) (AID 1845191); settings: activity, negative = inhibition: at 48.8 µM (top of the series); note: nearly all actives have a fitted effect of over 65% in size
Procedure, shortened: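 GR-coupled readout: NADPH consumption tracked by fluorescence, ex 340/em 450 nm, at t=0 and after 15 min at RT. Final mix 10 nM GPX1, 1 mM GSH, 0.5 mM CHP, 0.5 mM NADPH, 100 nM GR, 0.01% BSA, following 30 min enzyme–compound preincubation.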
Potency is the fitted concentration of half-maximal effect; tags give direction and shape of the fitted curve.

UniProt P36969, sequence (P36969 whole entry, looked up): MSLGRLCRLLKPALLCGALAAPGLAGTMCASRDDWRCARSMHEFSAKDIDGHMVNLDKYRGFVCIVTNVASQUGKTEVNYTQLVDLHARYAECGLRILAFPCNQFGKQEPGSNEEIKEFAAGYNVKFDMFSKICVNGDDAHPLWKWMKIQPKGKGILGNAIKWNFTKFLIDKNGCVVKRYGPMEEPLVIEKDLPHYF
UniProt P07203, sequence (P07203 whole entry, looked up): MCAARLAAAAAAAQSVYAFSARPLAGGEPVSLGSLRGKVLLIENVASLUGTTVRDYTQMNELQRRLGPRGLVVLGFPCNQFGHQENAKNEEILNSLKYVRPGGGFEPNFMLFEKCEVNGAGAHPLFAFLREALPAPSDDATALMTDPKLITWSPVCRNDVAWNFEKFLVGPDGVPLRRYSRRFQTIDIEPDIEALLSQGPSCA
UniProt P11712, sequence (P11712 whole entry, looked up): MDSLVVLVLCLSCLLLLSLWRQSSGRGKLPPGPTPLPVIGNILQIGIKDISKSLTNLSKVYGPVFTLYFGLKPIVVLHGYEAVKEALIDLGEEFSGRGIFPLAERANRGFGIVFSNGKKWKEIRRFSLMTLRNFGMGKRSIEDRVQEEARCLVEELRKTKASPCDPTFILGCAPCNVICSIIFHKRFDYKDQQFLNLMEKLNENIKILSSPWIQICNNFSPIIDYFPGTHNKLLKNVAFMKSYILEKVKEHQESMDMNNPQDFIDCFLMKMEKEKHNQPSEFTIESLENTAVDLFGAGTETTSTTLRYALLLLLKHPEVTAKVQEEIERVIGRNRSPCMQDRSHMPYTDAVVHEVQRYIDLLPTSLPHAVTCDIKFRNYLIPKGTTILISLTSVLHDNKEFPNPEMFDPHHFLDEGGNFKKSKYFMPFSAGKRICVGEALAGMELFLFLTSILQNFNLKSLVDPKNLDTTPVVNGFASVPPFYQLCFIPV
UniProt P10635, sequence (P10635 whole entry, looked up): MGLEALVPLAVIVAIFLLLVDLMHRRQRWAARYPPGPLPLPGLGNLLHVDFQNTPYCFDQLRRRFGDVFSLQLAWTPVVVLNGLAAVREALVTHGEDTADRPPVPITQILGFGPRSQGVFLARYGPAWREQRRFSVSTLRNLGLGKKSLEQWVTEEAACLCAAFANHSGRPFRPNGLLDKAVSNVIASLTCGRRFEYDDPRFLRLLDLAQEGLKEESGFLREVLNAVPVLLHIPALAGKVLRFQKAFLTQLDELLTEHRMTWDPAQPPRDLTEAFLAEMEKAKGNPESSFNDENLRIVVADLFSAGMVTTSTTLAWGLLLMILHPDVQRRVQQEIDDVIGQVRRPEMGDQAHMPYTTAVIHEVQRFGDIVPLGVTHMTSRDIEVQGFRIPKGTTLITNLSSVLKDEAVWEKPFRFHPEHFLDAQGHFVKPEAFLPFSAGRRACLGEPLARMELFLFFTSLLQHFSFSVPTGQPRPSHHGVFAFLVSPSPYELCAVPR

CC(C)c1cc(C(=O)N2Cc3ccc(CN4CCN(C)CC4)cc3C2)c(O)cc1O
Potency [1]: active: 0.935 µM | Potency [2]: inconclusive: 0.296 µM [cytotoxic, full curve, poor fit] | Potency [3]: active: 0.482 µM | Potency [4]: inconclusive: 1.09 µM [cytotoxic, full curve] | Potency [5]: active: 0.526 µM | Potency [6]: active: 0.769 µM | Potency [7]: inconclusive: 0.743 µM [cytotoxic, full curve] | Potency [8]: inconclusive: 21.3 µM [inhibitor, partial curve, poor fit] | Potency (WaGa): inconclusive: 0.209 µM [inhibitor, full curve]

Cc1[nH]c2ccc(F)cc2c1-c1nc2c3cccnc3c3ncccc3c2[nH]1
Potency [9]: inconclusive: 6 µM [inhibitor, partial curve] | Potency [10]: inactive | Potency [11]: inconclusive: 2.12 µM [inhibitor, full curve]

CCCC(CCC)C(=O)Nc1ccn([C@@H]2O[C@H](CO)[C@@H](O)C2(F)F)c(=O)n1
Potency [9]: inactive

O=C1NC(=O)C(c2cnc3ccccn23)=C1c1cn2c3c(cc(F)cc13)CN(C(=O)N1CCCCC1)CC2
Potency [12]: inconclusive: 56.2 µM [inhibitor, partial curve] | Potency [9]: active: 18.6 µM | Potency [13]: inconclusive: 23.9 µM [inhibitor, single point] | Potency [14]: inconclusive: 25.5 µM [inhibitor, partial curve, poor fit] | Potency [10]: inconclusive: 14.3 µM [inhibitor, partial curve] | Potency [11]: inconclusive: 0.474 µM [inhibitor, full curve]

COc1ccc(-c2ccc3c(N4CCOCC4C)nc(N4CCOCC4C)nc3n2)cc1CO (stereo not given)
Potency [14]: active: 18 µM | Potency [10]: active: 10.1 µM

CC(C)=CCCC1(C)/C=C/C(OC(=O)C=C(C)C)C(C)(O)/C=C/C(=O)/C(CO)=C\C1 (stereo not given)
Potency [10]: inactive

Cc1cc(N2CCOCC2)ccc1Nc1nc(NC2CCCCC2)c2[nH]cnc2n1
Potency [9]: inconclusive: 18.6 µM [inhibitor, partial curve] | Potency [14]: inconclusive: 18.3 µM [inhibitor, single point] | Potency [10]: inconclusive: 22.7 µM [inhibitor, partial curve, poor fit] | Potency [11]: active: 1.68 µM

Cc1[nH]c(/C=C2\C(=O)Nc3ccc(F)cc32)c(C)c1C(=O)NC[C@H](O)CN1CCOCC1
Potency [11]: inconclusive: 2.12 µM [inhibitor, full curve]

CCOc1cc(N2CCC(O)CC2)ccc1Nc1ncc2c(n1)N(C1CCCC1)CCC(=O)N2C
Potency [8]: inconclusive: 23.9 µM [inhibitor, partial curve] | Potency [10]: inactive | Potency [11]: inconclusive: 0.844 µM [inhibitor, full curve]
